Laboratory results from article PMC6451091.
The other results are listed elsewhere or left out. At the low end of the ranking, values are background and their order means little.

These sequences were tested against PU.1 (IVT) (UniProt P17947) (assay: protein-binding microarray (PBM)). Details: 20 mM HEPES pH 7.9, 100 mM NaCl, 1 mM DTT, 0.2 mg/mL BSA, 0.02% Triton X-100, 2% milk, 0.4 mg/mL salmon testes DNA; 1 h; temperature not stated; high values mean tight binding; double strand, one strand shown; sequences stand for … in GCCTAGCAC…GTGCTAGGTCTTGATTCGCTTGACGCTGCTG.

| Sequence | binding signal [z-score] |
| --- | --- |
| AGTCAGCAAACACCCACCAC | -0.75 |
| GCATCGTCGGTGTATTTTGT | -0.354 |
| TCCCTTCCATGGACAGGGGA | -0.68 |
| GCCAGCCCCCAACCCTGGTC | 0.0931 |
| TTCCCCGCAGGCCGGGCCGA | 2.37 |
| ATTGCAGTGAGCTGTGACCA | -0.421 |
| TATCTGCTGTATATCATTGG | 0.0351 |
| TTCCTCACAGTGAGGAAGAG | 5.03 |
| TTTCAGTCTTCAATCCCTGA | -0.1 |
| TTTTTAACAAGAAGTTCTTG | 0.636 |
| GCACATAGCCTGGCATTTAG | -0.573 |
| CTTGAAGAGAACACAACGCT | -0.0895 |
| GGGAGTTTTAGAAGTTGGAG | -0.271 |
| ATTTTAGCTGCCTGAAAGCC | -0.444 |
| TCCACAGCAAGGCTGCCGTG | 0.12 |
| AGTCAGCCTGGTGGCCTTCT | -0.729 |
| TAAAAGGAAAAGAGGGCTCC | -0.377 |

| Sequence | binding signal [z-score] |
| --- | --- |
| GTCACTCTCAGATACTGCCA | -0.702 |
| GGCCCTGGGTGGCAGGTTTG | -0.468 |
| TGAGGGGATCGACATTGAAA | -0.0245 |
| GAGTGAACTCACGTCCACAC | -0.708 |
| ACAAAAATACTATCTGACAC | -0.343 |
| CCATGCATAAAATTTTATGA | 0.0197 |
| TTCTTTCGCAGGTCAGGGCA | 0.131 |
| GGATCCGCTGGGAGGGGTGG | -0.363 |
| AAGGTTCTAGAGATCTATTG | -0.628 |
| AGGCAGTGAGCTAAGATTGC | -0.465 |
| GCTGCCTGAAAATGTGGCTC | -0.446 |
| TTGCACAAGGAGGAAGTGAG | 6.01 |
| CAGGAGTTCGAGACCAGCTT | -0.39 |
| AGGGAGCAGCCTCCTGACTT | -0.744 |
| AAAGACGCTGTCTAAAATAT | 0.0148 |
| TTCCACCCCCTCAGAGGAAG | 1.84 |
